From PubChem BioAssay AID493208 (National Center for Advancing Translational Sciences (NCATS), 2011)
Hit rate of the full screen: of about 44,000 compounds, about 340 (0.77%) were called active. About 5% were inconclusive and are not listed. The call rests on the fitted dose curve; in most records, active means well fitted inhibition curve with a large enough effect; inconclusive means small, poorly fitted or top-dose-only effect; inactive means flat fitted curve, though single readings scatter. Some of the results follow.

assay: Acumen qHTS Assay for Inhibitors of the mTORC1 Signaling Pathway in MEF (Tsc2-/-, p53-/-) Cells: Sytravon; conditions: phospho-rpS6 immunofluorescence/PI, 24 h; series mostly up to 38.3 µM; activity change, negative = inhibition: at the top concentration; further: nearly all actives have a fitted effect of over 50% in size;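 on activity change, negative = inhibition: plate controls were DMSO for no effect and rapamycin for full effect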
Method in brief: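 Compounds act on Tsc2-/-, p53-/- fibroblasts carrying an empty vector for 24 h before fixation and dual staining for phospho-S6 and DNA (propidium iodide). Values are percentages of cells above a rapamycin-defined pS6/PI threshold.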
Potency means the concentration at half of the fitted maximal effect.

Activity change, negative = inhibition, inactive:
CCOC(=O)c1cc(-c2ccccc2)n(-c2cccc(C(=O)Nc3cccc(SC)c3)c2)c1C -2.66%, COc1ccc(CCC(=O)NCCc2csc(-c3ccc(F)cc3)n2)cc1 -9.81%, COc1ccc(OC)c(NC(=O)CSc2nc(=O)n(CCN(C)C)c3c2CCC3)c1 -5.88%, CCc1ccccc1NC(=O)N1CCOc2ccccc21 0%, O=C(Cn1ncc2c([nH]c3ccccc32)c1=O)NCCCN1CCN(c2ccc(F)cc2)CC1 -0.662%, CCCOc1ccc(C2C(=O)N(C3CCCCCC3)CC(=O)N2Cc2ccccc2OC)cc1OC (stereo unspecified) 1.1%, COc1cc(NC(=O)CC2C(=O)N(c3ccccc3)C(=O)N2Cc2ccc(F)cc2)cc(OC)c1 (stereo unspecified) -3.1%, CCc1ccc(-n2c(=O)c3c4c(sc3n(Cc3ccccc3C#N)c2=O)CCCC4)cc1 1.85%, CCCn1c2ccccc2c2cnn(CC(=O)Nc3cc(C)c(Cl)cc3OC)c(=O)c21 -2.77%, CC1CCc2c(sc(NC(=O)Cc3ccccc3)c2C(=O)Nc2ccc(Cl)cc2)C1 (stereo unspecified) -5.93%, Cc1ccccc1-c1noc(CSc2nc3ccccc3[nH]2)n1 -0.87%, CCOC(=O)C1CCCN(C(=O)c2ccc3c(c2)sc2nc(-c4cccc(OC)c4)cn23)C1 (stereo unspecified) -0.929%, CCOCCc1nn2c(=O)cc(COC(=O)c3ccccc3OC)nc2s1 3.15%, COCCCn1c(SCc2cccc(Cl)c2)nc2c(sc3ccccc32)c1=O -4.9%, CCc1ccccc1Nc1nn2c(=O)c3ccc(C(=O)NCCC4=CCCCC4)cc3nc2s1 -6.38%, Cc1cc(=O)n2nc(N(C)CC(=O)NCc3ccccc3C)sc2n1 0.175%, CCCC(=O)Nc1cccc(OCc2cc(=O)n3cccc(C)c3n2)c1 -14.4%, O=C(NCCc1ccccc1)c1cc(Nc2ccccc2)nc2ccccc12 -9.83%, CCOCCc1nnc(NC(=O)C(=O)c2cc(C)n(-c3ccc(C)cc3C)c2C)s1 -1.35%, CCn1c(C)c(C)c2cc(C(=O)NCC(C)c3ccccc3)ccc21 (stereo unspecified) -13.4%, COc1ccc2c(c1)c1c(c(=O)n(Cc3ccccc3)c(=O)n1CC(=O)Nc1ccccc1OC)n2C -0.408%, COc1ccc(N(CC(=O)Nc2cccc(Cl)c2)S(=O)(=O)c2c(C)[nH]c(=O)[nH]c2=O)cc1 -9.93%, COc1ccc(N2CCN(CCCNC(=O)C3COc4ccccc4C3)CC2)cc1 (stereo unspecified) -7.19%, O=C(c1ccc2c(Cl)c3c(nc2c1)CCCC3)N1CCN(c2ccc(Cl)cc2)CC1 1.39%, O=C(Nc1nc2c(F)cc(F)cc2s1)c1ccc(S(=O)(=O)N2CCc3ccccc32)cc1 -10.2%

Potency, active:
CCOc1ccc(Nc2nc(-c3cccc(Cl)c3)c3c(n2)-c2ccccc2OC3)cc1 2330 nM
